According to ChEMBL document CHEMBL1157539, “Thousands of chemical starting points for antimalarial lead identification” (Nature, 2010):
Whole data set: some 13,000 compounds, median “IFI” near 4, cut for the highest 2% near 17. This is one part of the list.

Experiment: GSK_TCMDC: Inhibition Frequency Index (IFI). The number of non-kinase HTS assays where a compound showed > 50 % inhibition, expressed as a percentage of the number of such assays in which the compound was tested (-0 is zero)
Assay type: functional

Point of comparison: CCOC(=O)c1cccc(NC(=O)Nc2cc(C)nc3ccccc23)c1, IFI 7.52%. Against it:
- CCc1ccccc1NC(=O)CN1CCN(c2ncnc3scc(-c4ccc(F)cc4)c23)CC1 — lower, 1.85%
- Nc1oc2c(CN3CCCCCC3)c(O)ccc2c(=O)c1-c1nc2ccccc2s1 — lower, 4.13%
- COc1c(C)[nH]c(C)c(-c2ccc(Oc3cccc(C(F)(F)F)c3)cc2)c1=O — higher, 10.6%
- O=C(/C=C/c1ccc(Cl)c(Cl)c1)NC1CCC(CN2CCC(c3nc4ccccc4n3CCCO)CC2)CC1 (stereo not given) — lower, 3.76%
- Oc1ccc(CCNCCCCCCNCCCc2ccc(Cl)cc2)cc1O — lower, 6.57%
- CCCCC(NCC)c1ccc(OCCOc2ccc(C(CCCC)NCC)cc2)cc1 (stereo not given) — higher, 8.82%
- CN1CCC(C(=O)Nc2cccc(-c3ccc(-c4nc5cc(C(F)(F)F)ccc5[nH]4)cc3)c2)CC1 — higher, 8.55%
- CCCCCCc1cc(OC)c(OC)cc1C(C)Nc1ccnc2cc(Cl)ccc12 (stereo not given) — lower, 4.23%
- COc1ccc(N2CCN(CCCCNC(=O)c3ccc(NC(=O)c4ccc(C(F)(F)F)cc4)cc3)CC2)c(OC)c1 — lower, 1.77%
- CC(C)(CNC(=O)C1CCN(CCOc2ccc(Cl)cc2)CC1)c1nc(-c2ccc(Cl)c(O)c2)c(-c2ccncc2)[nH]1 — higher, 8.22%
- COc1ccc(NC(=O)[C@H](Cc2ccccc2)Nc2cc(C)nc(NCC3CCCCC3)n2)cc1 — lower, 7.14%
- CC(Oc1cc(-n2cnc3ccc(NC(=O)CCN4CCCCC4)cc32)sc1C(N)=O)c1ccccc1Cl (stereo not given) — higher, 9.35%
- COc1ccc2nccc([C@@H](O)CN3CCC(NC(=O)c4cc5c(F)cc(F)cc5[nH]4)CC3)c2n1 — lower, 5.26%
- Cc1cc(-c2ccc(CNCc3ccc(F)cc3)cc2)ccc1S(=O)(=O)NCCN1CCCC1 — higher, 16.2%
- CC(C)NCC(O)Cn1c2ccc(Br)cc2c2cc(Br)ccc21 (stereo not given) — higher, 10.6%
- Cc1nn(C2CCS(=O)(=O)C2)c(C)c1C1Nc2ccccc2C(=O)N1Cc1ccc2c(c1)OCO2 (stereo not given) — lower, 0%
- CCCCN(CCCC)CCCN(CCCN(CCCC)CCCC)c1cc(C)nc(Nc2ccc3cc(Br)ccc3c2)n1 — higher, 15.2%
- Cc1c(-c2ccc(C(=O)NC3CC(C)(C)NC(C)(C)C3)cc2)[nH]c2cc(Cl)c(Cl)cc12 — higher, 16.7%
- CCCCCCN1CCC(NCc2cccc3ccccc23)CC1 — lower, 5.44%
- Cc1cc(C(=O)CN2C(=O)NC3(CCOc4ccccc43)C2=O)c(C)n1Cc1ccco1 (stereo not given) — lower, 1.41%
- Cc1ncc([N+](=O)[O-])n1CCOC(=O)NC(NCC1COc2ccccc2O1)C(Cl)(Cl)Cl (stereo not given) — lower, 0%
- CCCc1ccc(-c2csc(NC(=O)c3ccc([N+](=O)[O-])o3)n2)cc1 — higher, 8.24%
- COc1ccc2nccc([C@H](O)CN3CCC(NCc4ccc5c(c4C)OCCO5)CC3)c2n1 — lower, 1.92%
- O=C(N[C@@H](CC1CCCCC1)C(=O)NCc1cccc(C(F)(F)F)c1)c1ccc(O)c(-c2ccc(Cl)c(Cl)c2)c1 — lower, 2.94%
- Cc1nn(-c2ccccc2)c2sc(C(=O)N(CCCN(C)C)c3nc(-c4ccccc4)cs3)cc12 — higher, 9.09%
- COc1ccc(Nc2nccc(-c3ccc4ccnc(NCCCCN)c4c3)n2)cc1 — lower, 4.5%
- COc1ccc(CN2CCCN(Cc3ccc(C(=O)Nc4ccc(Cl)cc4)cc3)CC2)cc1 — higher, 10.3%
- Cc1cc(=NN=Cc2ccc(F)cc2)c2cc(F)ccc2[nH]1 — lower, 2.86%
- COc1ccc(CCNCCCCCNCCc2ccc(Cl)cc2)cc1OC — lower, 3.57%
- C=CCc1cc(Cc2cnc(N)nc2N)cc(CCC)c1O — lower, 2.17%
- COc1ccc(N2CCN(CCCCNC(=O)c3ccc(NC(=O)c4ccc(Cl)c(Cl)c4)cc3)CC2)c(OC)c1 — lower, 5.31%
- N#CCCN1CCN(Cc2cccc(-c3ccc(-c4nc5cc(F)ccc5[nH]4)cc3)c2)CC1 — lower, 5.63%
- O=C(Cn1c(CCc2cccc(F)c2F)nc(=O)c2ccccc21)N(CCCN1CCCC1)Cc1ccc(-c2ccc(C(F)(F)F)cc2)cc1 — higher, 8.89%
- CCN1CCN(c2cc(C)c3cc(NC(=O)c4cccc(C(F)(F)F)c4)ccc3n2)CC1 — lower, 3.38%
- NC(=O)C1CCN(Cc2cccc(-c3ccc(-c4nc5cc(C(F)(F)F)ccc5[nH]4)cc3)c2)CC1 — lower, 4.85%
- COc1ccc2nc3ccccc3c(NCCN3CCN(C)CC3)c2c1 — lower, 0.7%
- Cc1ccc(C(=O)Cn2nc(-c3ccc(C)c(S(=O)(=O)N4CCCCC4)c3)ccc2=O)cc1 — lower, 2.38%
- N#CC(c1cccc(Cl)c1)c1ccc2c(C(F)(F)F)cc(C(F)(F)F)nc2n1 (stereo not given) — lower, 6.3%
- COc1ccc2[nH]c(C)cc(=NN=Cc3cccc(Cl)c3)c2c1 — lower, 4.48%
- COc1c(C2CCN(CCCCNC(=O)c3cc(-c4ccc(Cl)cc4)sc3C)CC2)ccc2c1CCCC2 — higher, 8.33%
- O=C(CSc1nccn1Cc1ccco1)Nc1cc(C(F)(F)F)ccc1Cl — higher, 8.33%
- NCC1CCCN1Cc1cccc(-c2ccc(-c3nc4cc(C(F)(F)F)ccc4[nH]3)s2)c1 (stereo not given) — higher, 10.1%
- Cc1cccc2[nH]c(-c3cc(-c4cn[nH]c4)cnc3N)nc12 — lower, 1.49%
- O=C(NCc1ccccc1F)c1ccc(N2CCC(NCc3cccc(-n4cccn4)c3)CC2)cc1 — lower, 2.7%
- Cn1cnc2c(Nc3ccncc3)nc(-c3ccc(OC(F)(F)F)cc3)nc21 — lower, 5.11%
- OC(c1ccccc1)C1CN(CCC2CC3CCC2C3)CCC1(O)c1ccccc1 (stereo not given) — lower, 2.94%
- CN(C)CCN(C)Cc1nc(-c2ccc3c(Nc4ccc(Oc5ccccc5)cc4)ccnc3c2)cs1 — higher, 9.16%
- Cc1nc(N)nc(N)c1C#CC1CCCC1 — lower, 5.15%
- O=S(=O)(Nc1cc2c(cc1O)CCNCC2)c1ccc(-c2ccc(Cl)cc2)cc1 — higher, 8.15%
- CN1CCCC(CN2CCN(Cc3cccc(-c4ccc(-c5nc6ccccc6[nH]5)s4)c3)CC2)C1 (stereo not given) — lower, 5.63%
- Cc1ccccc1Cn1c(CN2CCC(C(=O)NC3CC3)CC2)cc2ccccc21 — lower, 5.26%
- COc1ccc(OCc2ccccn2)c(C2CCN(CCCCNC(=O)c3ccc(NC(=O)c4ccc(Cl)cc4)cc3)CC2)c1 — lower, 1.54%
- CCNCCCC(C)Nc1ccnc2cc(Cl)ccc12 (stereo not given) — lower, -0%
- Nc1nc(N)c2cc3ccc(OCc4ccccc4)cc3nc2n1 — lower, 7.04%
- O=C(Nc1cccc(CN2CCCN(Cc3cccc(F)c3)CC2)c1)c1ccc(Cl)c(Cl)c1 — lower, 6%
- Oc1cc(Nc2ccnc3cc(I)ccc23)c(F)cc1Cl — lower, 5.8%
- CC(C)CCN1CCC(Oc2ccc(NC(=O)c3ccco3)cc2Cl)CC1 — lower, 4.84%
- COc1cc(F)c2nccc([C@@H](O)CN3CCC(NCc4ccc5c(n4)NC(=O)CS5)CC3)c2c1 — lower, 3.01%
- Cc1cccc2nc(-c3ccc(-c4cccc(NC(=O)Nc5ccsc5)c4)cc3)[nH]c12 — lower, 5%
- Cc1cc(N2CCC(N(C)C)C2)nc(Nc2ccc(Cl)cc2)n1 (stereo not given) — lower, 1.12%
- Cc1ccc(NC(=O)NC2CCN(CCCCCNC(=O)/C=C/c3ccc(Cl)c(Cl)c3)CC2)cc1C — higher, 8%
- Cc1nnc(N2C(=N)SC(=Cc3ccc(-c4ccc(OC(F)(F)F)cc4)o3)C2=O)s1 — higher, 10.7%
- CCN(CC)CCCC(C)Nc1c(-c2ccc(Br)cc2)cnc2ccccc12 (stereo not given) — lower, 1.43%
- O=C(Nc1ccc(Cl)cc1)N[C@H]1CCN(Cc2ccc(OCCCN3CCCCC3)cc2)C1 — lower, 7.14%
- COc1cc(NC(=O)/C=C/c2cc3ccccc3n2C)ccc1OCCN(C(C)C)C(C)C — lower, 2.07%
- Cc1cc2ccccc2n1CC(=O)N1CC(C(=O)N2CCCCC2)Oc2ccccc21 (stereo not given) — lower, 2.86%
- O=C(Nc1ccc(OC2CCN(Cc3ccc(F)cc3)C2)c(Cl)c1)c1ccoc1 (stereo not given) — lower, 2.99%
- O=C(NCCNc1ccnc2cc(Cl)ccc12)c1ccccc1F — lower, 2.9%
- CCNC(=O)Nc1cccc(-c2cccc(-c3nc4cc(C(F)(F)F)ccc4[nH]3)c2)c1 — lower, 4.04%
- O=S(=O)(Nc1ccc(CCN2CCC(N3CCCCC3)CC2)cc1)c1cccc(C(F)(F)F)c1 — lower, 4.69%
- CCN(CC)S(=O)(=O)c1ccc(C(C)NC(=O)c2ccccc2COc2ccccc2)cc1 (stereo not given) — lower, 2.27%
- CC(=O)/N=C1\N=C(NC(C)=O)NC(C)(C)N1OCCCOc1ccc(Cl)c(Cl)c1 — lower, 3.6%
- Oc1ccc(CCNCCCCCCNCCc2ccc(Cl)c3ccccc23)cc1O — lower, 5.34%
- CN1CCC(C(=O)Nc2ccc(-c3cccc(-c4nc5cc(F)ccc5[nH]4)c3)cc2)CC1 — lower, 2.61%
- FC(F)(F)c1ccc(Nc2nnnc3ccccc23)cc1 — lower, -0%
- CCCc1cc(OC)c(C[C@H]2c3cc(O)c(Cl)cc3CCN2C)cc1OC — lower, 2.82%
- CC(=O)c1cccc(NC(=O)NC2CCN(c3ccnc(Nc4ccc(F)cc4)n3)C2)c1 (stereo not given) — lower, 6.15%
- FC(F)(F)c1ccc2[nH]c(-c3cccc(-c4cccc(CNCC5CCCO5)c4)c3)nc2c1 (stereo not given) — lower, 6.8%
- O=C(CCc1c[nH]cn1)Nc1ccc(-c2ccc(-c3nc4ccccc4[nH]3)cc2)cc1 — lower, 3.51%
- COc1ccc(Cl)cc1N1CCN(CCCNC(=O)c2ccc(-c3nc4cc(Cl)c(F)cc4[nH]3)c(F)c2)CC1 — lower, 0.72%
- O=C(/C=C/c1ccc(Cl)c(Cl)c1)NCCCCCN1CCC(NC(=O)Nc2ccc(Cl)c(Cl)c2)CC1 — higher, 15.8%
- CCCn1c(Sc2ccc(C#N)c([N+](=O)[O-])c2)nnc1-c1ccc(Cl)cc1 — lower, 4.17%
- CC(C)C1=C[C@H]2C[C@]3(C4OCCO4)[C@@H]4CC[C@@H](C)[C@H]4C[C@@]2(COCc2cccc(C#N)c2)[C@]13C(=O)OC(c1ccccc1)c1ccccc1 — lower, 2.33%
- COc1ccc2nccc(N3CCC(CCNCc4ccc5c(n4)NC(=O)CS5)CC3)c2c1 — higher, 8.89%
- CCOCc1cnc(C)nc1CNC(=O)c1c(C)[nH]c2ccc(C)cc12 — lower, 1.47%
- Cc1cc(N2CCCC2)nc(Nc2ccc(NC(=O)C(C)C)cc2)n1 — higher, 7.84%
- NC1CCN(c2cnn(Cc3cccc(NC(=O)Nc4ccc(-c5ccccc5)cc4)c3)c(=O)c2Cl)CC1 — higher, 8.84%
- O=C(Nc1cc(C(F)(F)F)cc(C(F)(F)F)c1)Nc1cc(C(F)(F)F)cc(C(F)(F)F)c1 — lower, 1.47%
- CCCCC(N)COc1cccc2c(-c3ccncc3)c(-c3cccc(NC(=O)Nc4ccccc4)c3)nn12 (stereo not given) — higher, 14.1%
